In PMC11831438:
No constants are given. Whether binding was seen depends on the method and setting. In cells and extracts the contact can be indirect. Some results given as binding are weak or reduced against the parent protein; the word gives no strength.

Target: T1, endogenous Nrf2 (mouse) (mouse (endogenous in primary neurons and brain)) (UniProt Q60795)
T1 sequence: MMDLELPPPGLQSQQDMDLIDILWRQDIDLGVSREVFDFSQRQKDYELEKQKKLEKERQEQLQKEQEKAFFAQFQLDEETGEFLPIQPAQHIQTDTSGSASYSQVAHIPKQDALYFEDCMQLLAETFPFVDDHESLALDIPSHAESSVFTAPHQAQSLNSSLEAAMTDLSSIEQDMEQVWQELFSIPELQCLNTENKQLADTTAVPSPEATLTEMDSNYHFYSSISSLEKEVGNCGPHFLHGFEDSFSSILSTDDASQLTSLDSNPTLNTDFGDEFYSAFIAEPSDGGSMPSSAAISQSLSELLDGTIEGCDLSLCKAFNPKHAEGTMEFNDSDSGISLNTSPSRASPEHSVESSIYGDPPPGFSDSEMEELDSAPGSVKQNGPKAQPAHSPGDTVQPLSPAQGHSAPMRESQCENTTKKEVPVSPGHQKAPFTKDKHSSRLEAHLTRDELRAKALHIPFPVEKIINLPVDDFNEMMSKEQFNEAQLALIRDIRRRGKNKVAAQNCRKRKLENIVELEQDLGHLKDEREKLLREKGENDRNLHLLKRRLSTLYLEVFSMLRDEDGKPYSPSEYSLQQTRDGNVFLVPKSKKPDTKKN
Experiment: co-IP; endogenous proteins in primary mouse neurons, control or OGD 1 h and reperfusion 24 h; whole lysates and cytoplasmic and nuclear fractions; in some experiments neurons infected with adenoviruses expressing SENP6 or SENP6 shRNA for 48 h

“endogenous Cul3 (mouse) (from UniProt Q9JLV5 1-768)” was tested, and the binding was “binds”.
